The full ranking holds about 33,000 sequences; the median of “E-score (-0.5 to 0.5)” is about -0.017, and the highest 2% start at about 0.3. This is one part of the list.
Target: T1, Sut1 (UniProt P53032)
T1 sequence: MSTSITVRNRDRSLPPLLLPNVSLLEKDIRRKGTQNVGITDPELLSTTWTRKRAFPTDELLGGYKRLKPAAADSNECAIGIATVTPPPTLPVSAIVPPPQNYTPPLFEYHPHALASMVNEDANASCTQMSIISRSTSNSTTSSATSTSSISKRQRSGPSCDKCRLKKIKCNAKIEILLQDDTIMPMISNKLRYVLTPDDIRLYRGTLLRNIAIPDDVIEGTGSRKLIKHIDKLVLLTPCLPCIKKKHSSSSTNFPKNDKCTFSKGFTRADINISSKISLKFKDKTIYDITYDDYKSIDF
Assay: PBM E-score (8-mer binding enrichment) (E-score (-0.5 to 0.5)); higher = stronger / more preferred TF binding; most listed sequences are background and not binding sites
Details: protein concentration: 200 nM; construct: GST-full length
Description: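 Universal 'all 10-mer' protein binding microarrays (Agilent AMADID 015681) probed with GST-tagged S. cerevisiae TFs (full-length or DBD) made by in vitro transcription/translation (PURExpress), about 100-200 nM. Bound TF was detected with fluorescent anti-GST. Each ungapped 8-mer (which stands for itself and its reverse complement) is scored by the PBM enrichment score (E-score), a modified Wilcoxon-Mann-Whitney statistic from -0.5 to +0.5, computed with the Universal PBM Analysis Suite. Scale: above 0.35 generally sequence-specific binding.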

| Sequence | PBM E-score |
| --- | --- |
| AATGCAGA | 0.0221 |
| CGTTCGAA | 0.121 |
| GCTGATAA | 0.11 |
| GGACTACA | 0.227 |
| TAAAGCGA | 0.141 |
| ATGGGTAC | -0.0584 |
| CACGATGC | -0.209 |
| AGTTTAGG | 0.0512 |
| AACCATCT | -0.00764 |
| CTTCGTCC | -0.108 |
| GAGCGGTA | -0.144 |
| ACAAAAGA | 0.192 |
| AGTCCGCA | 0.441 |
| CGTCCGTC | -0.154 |
| TCTTGTCA | 0.0923 |
| GATCACTA | 0.0437 |
| AACGTCCG | 0.0822 |
| TAAATTTA | 0.292 |
| CGATAATA | 0.263 |
| GCTACCTA | -0.00803 |
| GTTCCCTA | -0.238 |
| ACTACGAA | 0.0609 |
| GTGATGCA | 0.0515 |
| TACGCGTA | -0.0808 |
| GTGGAGAA | -0.0819 |

| Sequence | PBM E-score |
| --- | --- |
| CCTTCGCA | -0.178 |
| CCTGGAAA | -0.099 |
| CGGGTTGA | -0.223 |
| AAACGGCC | -0.00943 |
| CTCAGCAC | -0.359 |
| CACCAGCA | -0.147 |
| ACGCAACA | 0.0423 |
| GATCACCA | 0.0174 |
| CCGGGGTC | 0.149 |
| ATCAAGGC | -0.0554 |
| ATGGCTGG | -0.179 |
| ACATCCGT | 0.107 |
| AGCCGTAC | -0.0187 |
| CGAGCATC | 0.103 |
| AGAACGAA | 0.146 |
| ACAAACAG | 0.118 |
| TCTGGGCA | -0.0108 |
| AGCCGACT | -0.0411 |
| CCCGGCCA | -0.106 |
| CGCGCCGA | 0.013 |
| TGAAGACA | 0.0524 |
| GATAAGAA | 0.203 |
| GCTGCGCC | -0.0869 |
| CAACTAAG | 0.114 |
| CAAGTCTC | -0.207 |

| Sequence | PBM E-score |
| --- | --- |
| CAGCTGCA | -0.0541 |
| AGCCCTTC | -0.212 |
| TTACGTAA | -0.0108 |
| ACGTCCAC | -0.188 |
| AGCCACCC | -0.217 |
| ACCGAAAT | 0.157 |
| AAAGGTAT | 0.141 |
| AGCAGTCG | -0.203 |
| AGCATAAA | 0.258 |
| GAACCAAA | 0.0874 |
| CGGATACC | -0.0487 |
| ACCTAAGC | -0.0154 |
| CGTTCTCC | 0.133 |
| AGATCAGA | 0.0769 |
| AGTAGGAC | -0.00278 |
| ACTGATAG | -0.0544 |
| ACGTTAAG | 0.0602 |
| TGCCACCA | -0.245 |
| AGAAGCAC | -0.139 |
| ATCTAACG | 0.0356 |
| GGTGCTCA | -0.0548 |
| CGGACCGC | 0.124 |
| AATCTAGA | 0.0755 |
| AAGACGTC | -0.135 |
| CCTATGAG | -0.111 |

| Sequence | PBM E-score |
| --- | --- |
| AAAAACGC | 0.198 |
| AGAGCGAC | -0.17 |
| AGATGACG | -0.117 |
| AGCTAGTC | 0.146 |
| CATCTCGC | -0.13 |
| AACTGTCA | 0.0244 |
| ACCTGCAG | -0.245 |
| AGTTGCGA | 0.133 |
| CCCTCGAG | -0.261 |
| ACCCTTGA | -0.17 |
| ACAGTGTA | -0.0288 |
| ACAATGCG | 0.125 |
| GAGTTGCC | 0.0547 |
| TAAAGTGA | 0.128 |
| ACTCCAAG | -0.0437 |
| ACGGTAAA | 0.0293 |
| GTCTAGCA | 0.0494 |
| TTTGCAAA | 0.0686 |
| TCACGTCA | -0.0875 |
| GAAGTGCA | -0.0894 |
| AGTGGGGC | -0.424 |
| CATATTTA | 0.243 |
| GCCCTAGC | -0.208 |
| GCGGTCAA | -0.186 |
| CCGCGGTC | 0.0819 |

| Sequence | PBM E-score |
| --- | --- |
| AAGATAAT | 0.204 |
| AGCCAGAT | -0.112 |
| GGAACTAA | 0.194 |
| CTGACGGC | -0.214 |
| AATTACGC | -0.0475 |
| ATCACAGA | 0.00232 |
| AGGCAAAA | 0.134 |
| GTCGACAA | -0.236 |
| TATACAAA | 0.237 |
| ACAAGTTC | 0.0329 |
| CCAATGAG | -0.159 |
| AGCTGTCG | -0.158 |
| AACGGACC | 0.191 |
| ACCGAGAG | 0.0245 |
| GCCGCTTA | -0.105 |
| GGGCGTGA | -0.182 |
| CCGAAGAG | -0.0171 |
| TAATCCAA | 0.0921 |
| CCCGAGTA | 0.0788 |
| CCCTCTCA | -0.299 |
| ACTCGAAG | -0.12 |
| CCCCAAAC | -0.111 |
| ATATGTCC | 0.196 |
| ACCCCCAT | -0.251 |
| CCGAACCC | 0.164 |

| Sequence | PBM E-score |
| --- | --- |
| CGTGGGAG | -0.0674 |
| CCGCACTA | 0.121 |
| CTTCCTAA | 0.118 |
| CGCTCGCA | 0.0517 |
| AAAACAGA | 0.0797 |
| ATACTTTC | 0.191 |
| GCCACGAA | -0.199 |
| ACTCTGTC | -0.176 |
| CTTGATAA | 0.206 |
| GTCAGCAC | -0.0173 |
| TACTATCA | 0.173 |
| GGGGCAGA | -0.195 |
| GTTTCGCA | -0.062 |
| CATATACC | -0.124 |
| ACCCGCGT | -0.233 |
| AATCACTC | -0.0706 |
| CATTCTAA | 0.11 |
| ATCAGAGA | 0.0328 |
| ACGCACCA | -0.269 |
| ACTAAGCA | -0.0381 |
| CCTGCTGC | -0.0998 |
| ACTGAGTG | 0.123 |
| GAAGTGTC | -0.00653 |
| AGGTTTCA | 0.0578 |
| ACGGGAAC | -0.12 |

| Sequence | PBM E-score |
| --- | --- |
| AGATAGCA | 0.147 |
| AGCGTTAA | 0.153 |
| ACGTGTTA | -0.0186 |
| AGAAGGAA | -0.183 |
| ATTGTTCA | 0.0247 |
| GACTTTAC | 0.157 |
| CTAGGCGA | -0.16 |
| CTACATGA | -0.173 |
| CTGTTTGC | -0.145 |
| TAGCGCGA | 0.057 |
| AGGCCACG | -0.142 |
| CGATTGAA | 0.126 |
| CGATAGTA | -0.0234 |
| GAACAAAC | 0.254 |
| AGTCGTGG | -0.124 |
| ATACACAC | -0.0228 |
| GGAATCGA | 0.0454 |
| AACATCAC | 0.0298 |
| TTACAGAA | 0.00668 |
| GTATCACA | 0.0305 |
| CACGGTTA | 0.0314 |
| CAAATTCC | 0.197 |

Source: the supplement of paper PMC3334620
